# Measured values reported in the supplement of paper PMC11348887.
# Where a name gives a salt, the structure may show the parent alone. The list shows a part of the results. No stated cut-off is given here; in the data, active = -2 or less and inactive = the rest. Many values rest on one well or one pass, so single values are uncertain.
# System: hPSC-derived cortical neurons (WA09)
# Test: nuclei number (viability) z-score; higher = more surviving cells
# Settings: 5 µM; treatment: days 7-14 after plating, readout day 21
# 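Further: nuclei counted from DAPI counterstain by automated high-content image analysis, four fields per well at ×20 in 384-well plates, with sequential b-score then z-score normalization.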
row,Structure (SMILES),nuclei number (z-score)
1,CCNC1(C(N)=O)CCN(c2ncnc3c2nc(-c2ccccc2Cl)n3-c2ccc(Cl)cc2)CC1,inactive: -0.708
2,CCC(C)(C)C(=O)O[C@H]1C[C@@H](C)C=C2C=C[C@H](C)[C@H](CC[C@@H]3C[C@@H](O)CC(=O)O3)[C@H]21 [Simvastatin],inactive: 0.381
3,O=C(CSc1nc2c(c(=O)n1-c1ccccc1)SCC2)Nc1ccc(-c2ccccc2)cn1,inactive: 4.13
4,O=C(c1ccc(F)c(F)c1Nc1ccc(I)cc1F)N1CC(O)([C@@H]2CCCCN2)C1 [Cobimetinib (GDC-0973_ RG7420)],inactive: -0.0797
5,O=S(=O)(c1cccc2cnccc12)N1CCCNCC1 [Fasudil (HA-1077) HCl],inactive: 2.53
6,COc1cc2nc(N3CCCN(C)CC3)nc(NC3CCN(Cc4ccccc4)CC3)c2cc1OC,active: -5.52
7,CC(C)c1cnn2c(NCc3ccccc3)cc(NCCCCCCN)nc12,inactive: -1.27
8,C[C@H](Nc1ncnc2nc[nH]c12)c1cc2cccc(Cl)c2c(=O)n1-c1ccccc1,inactive: 0.619
9,CCC1(C)CC(=O)NC1=O (centres undefined) [Ethosuximide],inactive: -0.106
10,CC(C)(O)CC(=O)NCCn1ccc2ncnc(Nc3ccc(Oc4cccc(C(F)(F)F)c4)c(Cl)c3)c21,inactive: 0.104
11,C[N+](C)(CCOc1ccccc1)Cc1ccccc1.O=C([O-])c1cc2ccccc2cc1O [Bephenium Hydroxynaphthoate],inactive: 0.575
12,CC(NCCc1ccc(O)cc1)C(O)c1ccc(O)cc1 (centres undefined) [Ritodrine HCl],inactive: 0.111
13,Cc1c(C(=O)N2CCOc3ccc(-c4ccc(N)nc4)cc3C2)ccc(S(C)(=O)=O)c1F,inactive: -0.414
14,CN1CCC(=C2c3ccccc3CCn3c(C=O)cnc32)CC1 [Alcaftadine],inactive: 10.9
15,Cc1cc(F)c(C(=O)Nc2cccc(-c3nncn3C(C)C)n2)cc1-n1cnc(C2CC2)c1 [Selonsertib (GS-4997)],inactive: 0.306
16,CCC(=O)O[C@]1(C(=O)SCF)[C@H](C)C[C@H]2[C@@H]3C[C@H](F)C4=CC(=O)C=C[C@]4(C)[C@@]3(F)[C@@H](O)C[C@@]21C [Fluticasone propionate],inactive: 0.703
17,Nc1ccc(/N=N/c2ccccc2)c(N)n1 [Phenazopyridine HCl],inactive: 0.878
18,CC(C)[C@H](O)C(=O)N[C@@H](C)C(=O)N[C@@H]1C(=O)N(C)CCc2ccccc21,inactive: 0.353
19,Cc1cn(-c2cc(NC(=O)c3ccc(C)c(Nc4nccc(-c5cnccn5)n4)c3)cc(C(F)(F)F)c2)cn1 [Radotinib],inactive: -0.977
20,Cc1[nH]nc2ccc(-c3cncc(OC[C@@H](N)Cc4ccccc4)c3)cc12,active: -8.86
21,COc1cc(CCc2cc(NC(=O)c3ccc(N4CC(C)NC(C)C4)cc3)n[nH]2)cc(OC)c1 (centres undefined),inactive: -0.851
22,Nc1ccc(C(=O)O)c(O)c1 [Sodium 4-Aminosalicylate],inactive: -0.0737
23,O=C1Nc2ccc(Cl)cc2[C@@](C#CC2CC2)(C(F)(F)F)O1 [Efavirenz],inactive: 0.13

row,Structure (SMILES),nuclei number (z-score)
1,CCCCN1CCCC[C@H]1C(=O)Nc1c(C)cccc1C [Levobupivacaine HCl],inactive: 0.607
2,CCCc1cc2c(N3CCN(C4=NCC(C)(C)S4)CC3)ncnc2s1 [MI-2 (Menin-MLL Inhibitor)],active: -3.95
3,CNCc1ccc(C)c(NC(=O)c2ccc(Nc3nc(-c4ccccc4)c4ccccc4n3)cc2)c1,active: -3.47
4,Cc1cccc(C)c1OCC(=O)N[C@@H](Cc1ccccc1)[C@@H](O)C[C@H](Cc1ccccc1)NC(=O)[C@H](C(C)C)N1CCCNC1=O [Lopinavir],inactive: -0.0303
5,Clc1ccc(C(c2ccccc2Cl)C(Cl)Cl)cc1 (centres undefined) [Mitotane],inactive: -0.817
6,O=C1O[C@H]([C@@H](O)CO)C(O)=C1O [Vitamin C],inactive: 0.738
7,C[S+](CC[C@H](N)C(=O)[O-])C[C@H]1O[C@@H](n2cnc3c(N)ncnc32)[C@H](O)[C@@H]1O (some centres undefined) [Ademetionine disulfate tosylate],inactive: -0.0111
8,O=C(O)c1ccccc1Nc1cccc(C(F)(F)F)c1 [Flufenamic acid],inactive: 0.193
9,O=C(O)Cn1nnc(-c2cc(N3CCC(Oc4cc(F)ccc4Br)CC3)no2)n1,inactive: 0.316
10,Cc1csc(-c2nnc(Nc3ccc(Oc4ncccc4-c4ccnc(N)n4)cc3)c3ccccc23)c1,inactive: 1.17
11,Nc1nc2c(ncn2COC(CO)CO)c(=O)[nH]1 [Ganciclovir],inactive: 0.501
12,CCCCCCCCCCCCCCCC(=O)OC[C@H](O)[C@H]1OC(=O)C(O)=C1O [L-Ascorbyl 6-palmitate],inactive: 0.632
13,Cc1nc2c([nH]1)-c1ccccc1N(C(=O)c1ccc(NC(=O)c3ccccc3-c3ccccc3)cc1)CC2 [Conivaptan HCl],inactive: 2.21
14,CNCCc1ccccn1 [Betahistine 2HCl],inactive: -0.856
15,CN(C)C(=N)NC(=N)N [Metformin HCl],inactive: -0.0838
16,COc1ccc2c(Oc3ccc(NC(=O)c4c(C)n(CC(C)(C)O)n(-c5ccccc5)c4=O)nc3)ccnc2c1,inactive: 1.98
17,COc1c(C)cnc(Cn2cnc3c(Cl)nc(N)nc32)c1C,active: -3.52
18,c1ccc2c(CCNc3ccc(Nc4ccncc4)cc3)c[nH]c2c1,inactive: 0.347
19,NCCCCCC(=O)O [_6-__-_Aminocaproic acid],inactive: 0.0202
20,CC(C)CCNC(=O)[C@H](CC(C)C)NC(=O)[C@H]1O[C@@H]1C(=O)O [Loxistatin Acid (E-64C)],inactive: 1.12
21,O=C(Cc1ccccc1)Nc1nnc(CCSCCc2nnc(NC(=O)Cc3ccccc3)s2)s1,inactive: 0.554
22,COc1ccc(-c2nc(N3CCOCC3)c3sc(CN(C)c4ncc(C(=O)NO)cn4)cc3n2)cn1,active: -5.35
23,COc1cc(-c2ncn(/C=C\C(=O)OC(C)C)n2)cc(C(F)(F)F)c1,active: -3.92

row,Structure (SMILES),nuclei number (z-score)
1,CC(=O)O[C@]1(C(C)=O)CC[C@H]2[C@@H]3C=C(Cl)C4=CC(=O)CC[C@]4(C)[C@H]3CC[C@@]21C [Chlormadinone acetate],inactive: 0.494
2,COc1ccc(Cl)c(Nc2nc3ccccc3nc2NS(=O)(=O)c2cccc(NC(=O)C(C)(C)N)c2)c1 [Pilaralisib (XL147)],inactive: -0.399
3,CCCNC(=O)NS(=O)(=O)c1ccc(Cl)cc1 [Chlorpropamide],inactive: 0.0507
4,Cn1ncnc1[C@H]1c2n[nH]c(=O)c3cc(F)cc(c23)N[C@@H]1c1ccc(F)cc1,inactive: 0.268
5,Cc1cnc(Nc2ccc(OCCN3CCCC3)cc2)nc1Nc1cccc(S(=O)(=O)NC(C)(C)C)c1,active: -3.11
6,C[C@]12C=CC(=O)N[C@@H]1CC[C@@H]1[C@@H]2CC[C@]2(C)[C@@H](C(=O)Nc3cc(C(F)(F)F)ccc3C(F)(F)F)CC[C@@H]12 [Dutasteride],inactive: -0.00407
7,Clc1cccc(Cl)c1NC1=NCCN1 [Clonidine HCl],inactive: 0.438
8,CN(C)S(=O)(=O)c1ccc2c(c1)/C(=C/c1cc3c([nH]1)CCCC3)C(=O)N2,inactive: -0.293
9,CO[C@H]1/C=C/O[C@@]2(C)Oc3c(C)c(O)c4c(O)c(c5c(nc6cc(C)ccn65)c4c3C2=O)NC(=O)/C(C)=C\C=C\[C@H](C)[C@H](O)[C@@H](C)[C@@H](O)[C@@H](C)[C@H](OC(C)=O)[C@@H]1C [Rifaximin],inactive: -0.00151
10,O=C(O)CCc1ccc(NCc2cccc(Oc3ccccc3)c2)cc1,inactive: 0.379
11,O=C1NCC2(CCN(CCc3ccccc3)CC2)O1 [Fenspiride HCl],inactive: 0.000535
12,Clc1ccc2c(c1)CCc1cccnc1C2=C1CCNCC1 [Desloratadine],inactive: 0.355
13,CCS(=O)(=O)N1CC(CC#N)(n2cc(-c3ncnc4[nH]ccc34)cn2)C1,inactive: 0.196
14,Nc1nccc(Oc2ccc(NC(=O)c3c[nH]cc(-c4ccc(F)cc4)c3=O)cc2F)c1Cl,inactive: 6.57
15,OC(c1cc(-c2ccc(Cl)cc2)nc2ccccc12)C1CCCCN1 (centres undefined) [Vacquinol-1],active: -7.13
16,C[C@H]1CO[C@@H]2Cn3cc(C(=O)NCc4ccc(F)cc4F)c(=O)c(O)c3C(=O)N12,inactive: -0.0724
17,NC(=O)Nc1cc(-c2cccc(F)c2)sc1C(=O)N[C@H]1CCCNC1,inactive: -0.53
18,O=C(c1ccc(F)cc1)C1CCN(CCn2c(=O)[nH]c3ccccc3c2=O)CC1 [Ketanserin],inactive: -0.56
19,C[C@H]1[C@H](C)CC[C@]2(C(=O)O)CC[C@]3(C)C(=CC[C@@H]4[C@@]5(C)CC[C@H](O)C(C)(C)[C@@H]5CC[C@]43C)[C@H]12 [Ursolic Acid],inactive: 0.0353
20,CCC1(c2ccccc2)C(=O)NCNC1=O [Primidone],inactive: 1.33
21,CCCCc1oc2ccc(NS(C)(=O)=O)cc2c1C(=O)c1ccc(OCCCN(CCCC)CCCC)cc1 [Dronedarone HCl],active: -6
22,COc1cc(Nc2c(C#N)cnc3cc(OCCCN4CCN(C)CC4)c(OC)cc23)c(Cl)cc1Cl [Bosutinib (SKI-606)],inactive: 0.706
23,CCCCCCCCCC(=O)N[C@@H](Cc1c[nH]c2ccccc12)C(=O)N[C@H](CC(N)=O)C(=O)N[C@@H](CC(=O)O)C(=O)N[C@@H]1C(=O)NCC(=O)N[C@@H](CCCN)C(=O)N[C@@H](CC(=O)O)C(=O)N[C@H](C)C(=O)N[C@@H](CC(=O)O)C(=O)NCC(=O)N[C@H](CO)C(=O)N[C@@H]([C@H](C)CC(=O)O)C(=O)N[C@@H](CC(=O)c2ccccc2N)C(=O)O[C@@H]1C [Daptomycin],inactive: 0.068
